# In the supplement of paper PMC8728848:
# This is one part of the list.
# How the values were obtained:
# Assay in all cases: glycan array binding signal (z-score within array); higher = stronger binding
# Conditions in all cases: glycan notation: IUPAC condensed, linker removed
# [1] = molecular target: Gal(b1-4)GlcNAc(b1-2)Man(a1-3)[Gal(b1-4)GlcNAc(b1-2)Man(a1-6)]Man(b1-4)GlcNAc(b1-4)GlcNAc
# Method in brief: (§1)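 Negative Z-scores can be read as non-binding. The Z-score is calculated within each array and then averaged across arrays of one protein sequence at different concentrations or buffers and across linkers. Arrays, 3228 in all, were curated from the Consortium for Functional Glycomics database and kept only where the protein sequence was available.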
# [2] = molecular target: Gal(b1-4)GlcNAc(b1-2)Man(a1-3)[Gal(b1-4)GlcNAc(b1-2)Man(a1-6)]Man(b1-4)GlcNAc(b1-4)[Fuc(a1-6)]GlcNAc
# Method in brief: as §1
# [3] = molecular target: Gal(b1-4)GlcNAc(b1-2)Man(a1-3)[Gal(b1-4)GlcNAc(b1-2)][GlcNAc(b1-4)]Man(b1-4)GlcNAc(b1-4)GlcNAc
# Method in brief: as §1
# [4] = molecular target: Gal(b1-4)GlcNAc(b1-2)Man(a1-3)[GlcNAc(b1-2)Man(a1-6)]Man(b1-4)GlcNAc(b1-4)GlcNAc
# Method in brief: as §1
# [5] = molecular target: Gal(b1-4)GlcNAc(b1-2)Man(a1-3)[Man(a1-6)]Man(b1-4)GlcNAc(b1-4)GlcNAc
# Method in brief: as §1
# [6] = molecular target: Gal(b1-4)GlcNAc(b1-2)Man(a1-6)Man(b1-4)GlcNAc(b1-4)GlcNAc
# Method in brief: as §1
# [7] = molecular target: Gal(b1-4)GlcNAc(b1-2)Man(a1-6)[GlcNAc(b1-2)Man(a1-3)]Man(b1-4)GlcNAc(b1-4)GlcNAc
# Method in brief: as §1
# [8] = molecular target: Gal(b1-4)GlcNAc(b1-2)Man(a1-6)[Man(a1-3)]Man(b1-4)GlcNAc(b1-4)GlcNAc
# Method in brief: as §1
# [9] = molecular target: Gal(b1-4)GlcNAc(b1-2)[Gal(b1-4)GlcNAc(b1-4)]Man(a1-3)[Gal(b1-4)GlcNAc(b1-2)Man(a1-6)]Man(b1-4)GlcNAc(b1-4)GlcNAc
# Method in brief: as §1
# [10] = molecular target: Gal(b1-4)GlcNAc(b1-2)[Gal(b1-4)GlcNAc(b1-4)]Man(a1-3)[Gal(b1-4)GlcNAc(b1-2)[Gal(b1-4)GlcNAc(b1-6)]Man(a1-6)]Man(b1-4)GlcNAc(b1-4)GlcNAc
# Method in brief: as §1
# [11] = molecular target: Gal(b1-4)GlcNAc(b1-2)[Gal(b1-4)GlcNAc(b1-4)]Man(a1-3)[GlcNAc(b1-4)][Gal(b1-4)GlcNAc(b1-2)Man(a1-6)]Man(b1-4)GlcNAc(b1-4)GlcNAc
# Method in brief: as §1
# [12] = molecular target: Gal(b1-4)GlcNAc(b1-2)[Gal(b1-4)GlcNAc(b1-4)]Man(a1-3)[GlcNAc(b1-4)][Gal(b1-4)GlcNAc(b1-2)[Gal(b1-4)GlcNAc(b1-6)]Man(a1-6)]Man(b1-4)GlcNAc(b1-4)GlcNAc
# Method in brief: as §1
# [13] = molecular target: Gal(b1-4)GlcNAc(b1-2)[Gal(b1-4)GlcNAc(b1-4)]Man(a1-3)[GlcNAc(b1-4)][Gal(b1-4)GlcNAc(b1-2)[Gal(b1-4)GlcNAc(b1-6)]Man(a1-6)]Man(b1-4)GlcNAc(b1-4)[Fuc(a1-6)]GlcNAc
# Method in brief: as §1
# [14] = molecular target: Gal(b1-4)GlcNAc(b1-2)[Gal(b1-4)GlcNAc(b1-6)]Man(a1-6)[Gal(b1-4)GlcNAc(b1-2)Man(a1-3)]Man(b1-4)GlcNAc(b1-4)GlcNAc
# Method in brief: as §1
# [15] = molecular target: Gal(b1-4)GlcNAc(b1-2)[Gal(b1-4)GlcNAc(b1-6)]Man(a1-6)[Gal(b1-4)GlcNAc(b1-2)Man(a1-3)]Man(b1-4)GlcNAc(b1-4)[Fuc(a1-6)]GlcNAc
# Method in brief: as §1
# [16] = molecular target: Gal(b1-4)GlcNAc(b1-2)[Gal(b1-4)GlcNAc(b1-6)]Man(a1-6)[GlcNAc(b1-4)][Gal(b1-4)GlcNAc(b1-2)Man(a1-3)]Man(b1-4)GlcNAc(b1-4)GlcNAc
# Method in brief: as §1
# [17] = molecular target: Gal(b1-4)GlcNAc(b1-3)Gal(b1-3)GlcNAc
# Method in brief: as §1
# [18] = molecular target: Gal(b1-4)GlcNAc(b1-3)Gal(b1-4)Glc
# Method in brief: as §1
# [19] = molecular target: Gal(b1-4)GlcNAc(b1-3)Gal(b1-4)GlcNAc
# Method in brief: as §1
# [20] = molecular target: Gal(b1-4)GlcNAc(b1-3)Gal(b1-4)GlcNAc(b1-3)Gal(b1-4)GlcNAc
# Method in brief: as §1
# [21] = molecular target: Gal(b1-4)GlcNAc(b1-3)Gal(b1-4)[Fuc(a1-3)GlcNAc(b1-6)]Gal(b1-4)Glc
# Method in brief: as §1
# [22] = molecular target: Gal(b1-4)GlcNAc(b1-3)Gal(b1-4)[Fuc(a1-3)]GlcNAc(b1-3)Gal(b1-4)[Fuc(a1-3)]GlcNAc
# Method in brief: as §1
# [23] = molecular target: Gal(b1-4)GlcNAc(b1-3)GalNAc
# Method in brief: as §1
# [24] = molecular target: Gal(b1-4)GlcNAc(b1-3)[Gal(b1-4)GlcNAc(b1-6)]Gal(b1-4)GlcNAc
# Method in brief: as §1
# [25] = molecular target: Gal(b1-4)GlcNAc(b1-3)[Gal(b1-4)GlcNAc(b1-6)]GalNAc
# Method in brief: as §1
# [26] = molecular target: Gal(b1-4)GlcNAc(b1-3)[GlcNAc(b1-6)]Gal(b1-4)GlcNAc
# Method in brief: as §1
# [27] = molecular target: Gal(b1-4)GlcNAc(b1-6)Gal(b1-4)GlcNAc
# Method in brief: as §1
# [28] = molecular target: Gal(b1-4)GlcNAc(b1-6)Gal(b1-4)GlcNAc(b1-6)GalNAc
# Method in brief: as §1
# [29] = molecular target: Gal(b1-4)GlcNAc(b1-6)GalNAc
# Method in brief: as §1
# [30] = molecular target: Gal(b1-4)GlcNAc(b1-6)[Gal(b1-3)]GalNAc
# Method in brief: as §1
# Gal(b1-4)GlcNAc6P = molecular target: Gal(b1-4)GlcNAc6P
# Method in brief: as §1
# Gal(b1-6)Gal = molecular target: Gal(b1-6)Gal
# Method in brief: as §1
# Gal3S(b1-3)GalNAc = molecular target: Gal3S(b1-3)GalNAc
# Method in brief: as §1
# Gal3S(b1-3)GlcNAc = molecular target: Gal3S(b1-3)GlcNAc
# Method in brief: as §1
# [31] = molecular target: Gal3S(b1-3)[Fuc(a1-4)]GlcNAc
# Method in brief: as §1
# Gal3S(b1-4)Glc = molecular target: Gal3S(b1-4)Glc
# Method in brief: as §1
# Gal3S(b1-4)Glc6S = molecular target: Gal3S(b1-4)Glc6S
# Method in brief: as §1
# Gal3S(b1-4)GlcNAc = molecular target: Gal3S(b1-4)GlcNAc
# Method in brief: as §1
binder,measurement,setting,value
"Gal 8 (Homo sapiens), O00214_1 (protein) MMLSLNNLQNIIYNPVIPFVGTIPDQLDPGTLIVIRGHVPSDADRFQVDLQNGSSMKPRADVAFHFNPRFKRAGCIVCNTLINEKWGREEITYDTPFKREKSFEIVIMVLKDKFQVAVNGKHTLLYGHRIGPEKIDTLGIYGKVNIHSIGFSFSSDLQSTQASSLELTEISRENVPKSGTPQLRLPFAARLNTPMGPGRTVVVKGEVNANAKSFNVDLLAGKSKDIALHLNPRLNIKAFVRNSFLQESWGEEERNITSFPFSPGMYFEMIIYCDVREFKVAVNGVHSLEYKHRFKELSSIDTLEINGDIHLLEVRSW",glycan array binding signal (z-score),[1],-0.278
same,glycan array binding signal (z-score),[2],-0.211
same,glycan array binding signal (z-score),[3],-0.238
same,glycan array binding signal (z-score),[4],-0.191
same,glycan array binding signal (z-score),[5],0.003
same,glycan array binding signal (z-score),[6],-0.185
same,glycan array binding signal (z-score),[7],-0.23
same,glycan array binding signal (z-score),[8],-0.25
same,glycan array binding signal (z-score),[9],-0.184
same,glycan array binding signal (z-score),[10],0.323
same,glycan array binding signal (z-score),[11],0.171
same,glycan array binding signal (z-score),[12],-0.175
same,glycan array binding signal (z-score),[13],-0.19
same,glycan array binding signal (z-score),[14],-0.172
same,glycan array binding signal (z-score),[15],0.021
same,glycan array binding signal (z-score),[16],-0.251
same,glycan array binding signal (z-score),[17],1.38
same,glycan array binding signal (z-score),[18],2.32
same,glycan array binding signal (z-score),[19],0.79
same,glycan array binding signal (z-score),[20],0.614
same,glycan array binding signal (z-score),[21],-0.3
same,glycan array binding signal (z-score),[22],-0.194
same,glycan array binding signal (z-score),[23],-0.231
same,glycan array binding signal (z-score),[24],-0.182
same,glycan array binding signal (z-score),[25],-0.238
same,glycan array binding signal (z-score),[26],-0.239
same,glycan array binding signal (z-score),[27],-0.256
same,glycan array binding signal (z-score),[28],0.004
same,glycan array binding signal (z-score),[29],-0.191
same,glycan array binding signal (z-score),[30],-0.212
same,glycan array binding signal (z-score),Gal(b1-4)GlcNAc6P,-0.233
same,glycan array binding signal (z-score),Gal(b1-6)Gal,-0.241
same,glycan array binding signal (z-score),Gal3S(b1-3)GalNAc,-0.043
same,glycan array binding signal (z-score),Gal3S(b1-3)GlcNAc,0.085
same,glycan array binding signal (z-score),[31],-0.222
same,glycan array binding signal (z-score),Gal3S(b1-4)Glc,0.022
same,glycan array binding signal (z-score),Gal3S(b1-4)Glc6S,1.87
same,glycan array binding signal (z-score),Gal3S(b1-4)GlcNAc,-0.23
